Hit rate of the full screen: of about 310,000 compounds, about 14,000 (4.5%) showed an effect of 50% or more. The effect is printed as a negative number. The list shows a part of the results.
Target: human ether-à-go-go-related gene (hERG) potassium channel (human, UniProt Q12809)
Test: primary screen, population patch clamp on CHO cells stably expressing hERG
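Also: peak tail current of the secondary pulse compared with the same well before compound.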

Sequence of human ether-à-go-go-related gene (hERG) potassium channel (Q12809 whole entry, looked up): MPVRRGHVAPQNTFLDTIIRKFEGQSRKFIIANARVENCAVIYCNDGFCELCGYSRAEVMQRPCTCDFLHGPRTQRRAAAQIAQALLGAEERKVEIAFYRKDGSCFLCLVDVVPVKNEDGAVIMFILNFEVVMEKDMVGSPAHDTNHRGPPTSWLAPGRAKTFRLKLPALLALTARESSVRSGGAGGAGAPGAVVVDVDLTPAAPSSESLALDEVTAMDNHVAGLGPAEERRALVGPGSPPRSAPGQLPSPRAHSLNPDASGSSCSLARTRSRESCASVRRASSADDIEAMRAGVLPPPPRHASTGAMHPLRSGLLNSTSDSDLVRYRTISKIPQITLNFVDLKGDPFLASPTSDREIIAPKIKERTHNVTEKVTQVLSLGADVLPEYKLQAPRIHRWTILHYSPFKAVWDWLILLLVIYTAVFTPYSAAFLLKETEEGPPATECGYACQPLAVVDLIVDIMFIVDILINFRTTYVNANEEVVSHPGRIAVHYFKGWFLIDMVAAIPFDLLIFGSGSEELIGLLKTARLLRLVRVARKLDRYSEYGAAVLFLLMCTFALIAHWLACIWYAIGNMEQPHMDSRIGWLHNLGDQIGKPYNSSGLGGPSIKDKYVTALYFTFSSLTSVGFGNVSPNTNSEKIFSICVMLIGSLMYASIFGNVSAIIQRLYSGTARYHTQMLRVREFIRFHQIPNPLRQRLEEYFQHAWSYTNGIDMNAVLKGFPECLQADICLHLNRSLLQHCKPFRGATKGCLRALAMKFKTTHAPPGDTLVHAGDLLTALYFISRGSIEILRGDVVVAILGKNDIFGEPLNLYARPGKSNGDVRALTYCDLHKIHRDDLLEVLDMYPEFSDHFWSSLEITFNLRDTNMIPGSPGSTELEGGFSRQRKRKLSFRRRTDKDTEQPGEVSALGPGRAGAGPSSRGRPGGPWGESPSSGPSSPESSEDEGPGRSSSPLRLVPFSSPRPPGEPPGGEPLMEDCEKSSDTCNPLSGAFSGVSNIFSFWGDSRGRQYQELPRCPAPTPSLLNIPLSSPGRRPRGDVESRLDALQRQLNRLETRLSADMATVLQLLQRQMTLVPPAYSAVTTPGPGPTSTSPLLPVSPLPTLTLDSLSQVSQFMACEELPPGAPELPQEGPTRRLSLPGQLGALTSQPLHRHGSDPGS

SMILES | hERG current change (%, negative = inhibition) at 10uM [%]
Cc1ccc(N2C(=O)C(CN3CCOCC3)C2c2ccccc2)cc1 (stereo not drawn) | -26.5
CCOc1ccc(NC(=O)CN(C)Cc2cc(=O)n3c(-c4ccccc4)csc3n2)cc1OCC | 12.4
O=C(CSc1n[nH]c(=O)n1Cc1ccccc1)Nc1ccc(F)c(F)c1F | 10.1
Cc1cc(N2CCOCC2)ccc1/C=C1\SC(=O)N(C(C)C)C1=O | -6.26
CC1=C(C(=O)Nc2ccccc2)S(=O)(=O)CCO1 | 12.2
COc1ccc(NC(=O)NS(=O)(=O)c2ccc(C)cc2)cn1 | 11.9
Cc1nn(C)c(C)c1NC(=O)Nc1cccc(C(F)(F)F)c1 | 1.34
COC(=O)CCCNc1ncccc1[N+](=O)[O-] | 21.2
COc1ccc(OC)c(NC(=O)CCCC(=O)NC2CCCCC2)c1 | 20.4
O=C1C=C(NC2CCCCC2)CCC1 | 8.06
NC(=O)NC(Cc1ccccc1)C(=O)Nc1ccc(S(N)(=O)=O)cc1 (stereo not drawn) | -2.84
CCN(CC)C(=O)CSc1nnc(CNc2ccc(F)cc2)n1Cc1ccco1 | -38.2
Cc1c(CCO)c(=O)n(-c2ccccc2)n1S(=O)(=O)c1ccc(F)cc1 | 1.37
Nc1nnc(SCC(=O)NC2CCCCCC2)s1 | 9.18
COc1ccc(OCC(O)CN2CCN(c3ccccc3)CC2)cc1.Cl (stereo not drawn) | -39.2
COc1ccc(-c2cc(C)no2)cc1S(=O)(=O)N(C)c1cccc(C)c1 | -82.5
Oc1cccc(Nc2nc(O)c(/C=C3\C=Nc4ccccc43)s2)c1 | -7.99
CCC(C(=O)Nc1ccc(C(C)C)cc1)c1ccccc1 (stereo not drawn) | 11.8
CCCCn1c(N)c(N(CCC(C)C)C(=O)C2CCCO2)c(=O)[nH]c1=O (stereo not drawn) | 11.4
O=C(O)CC1(CC(=O)N2CCC(C(=O)O)CC2)CCCC1 | 22.4
O=C(COC(=O)c1cc2ccccc2o1)c1ccccc1 | 4.14
Fc1ccccc1C1c2[nH]c3ccccc3c2CCN1Cc1cccn1-c1ncccn1 (stereo not drawn) | -50.6
COc1ccc(-n2c(C)cc(C(=O)CCl)c2C)cc1 | -9.2

SMILES | hERG current change (%, negative = inhibition) at 10uM [%]
Cc1c(C(=O)N2CCCCC2)c(S(=O)(=O)Nc2ccc(F)cc2F)c(C)n1C | 21.9
Fc1ccc(-c2nn3c(C4COc5ccccc5O4)nnc3s2)cc1 (stereo not drawn) | 6.78
COc1c(Cl)ccc(Cl)c1C(=O)NCc1ccco1 | 3.52
CCOc1ccc(NC(=S)NNC(=O)c2ccc(Br)cc2)cc1 | 14.2
CCCCn1c(N)c(N(C)C(=O)c2ccc(OCC3CCCO3)cc2)c(=O)[nH]c1=O (stereo not drawn) | 5.48
O=C(CN(Cc1ccccc1)S(=O)(=O)c1ccc2c(c1)OCCO2)N/N=C/c1cccc(Br)c1 | -30
O=C(CN1CCN(C(=O)c2cncn2-c2ccc(F)cc2)CC1)Nc1ccccc1C(F)(F)F | -70
O=C(NCCCCc1ccccc1)C1CCCC1 | -1.81
COc1cc(CN2CCN(c3ccc(C)cc3)CC2)cc([N+](=O)[O-])c1O | -15.1
Cc1cc(C)cc(N2CC(O)Cn3c2nc2c3c(=O)[nH]c(=O)n2C)c1 (stereo not drawn) | 9.32
Cn1cc(SCC(=O)NC2CCCCC2)c2ccccc21 | 3.8
COc1cccc(NC(=O)Nc2nnc(Cc3ccccc3F)s2)c1 | 19.7
CCc1nc(Nc2ccc3c(c2)OCO3)c2oc3ccccc3c2n1.Cl | 8.76
O=C(CCNC(=O)c1ccc(Br)o1)NCc1ccccn1 | 2.79
Cc1ccccc1C(=O)Oc1cccc2c(O)cccc12 | 14.8
Cc1cc(NC(=O)C(=O)c2cn(C)c3ccccc23)no1 | 13.3
CCOC(=O)CNC(=O)CSc1nnc(Cn2cnc3ccccc32)n1C | -0.389
Cc1sc(NC(=O)c2ccco2)c(C(c2cccnc2)N2CCCC2)c1C (stereo not drawn) | -8.45
O=C(CSC(=S)N1CCOCC1)c1cc2ccccc2oc1=O | 1.25
CCOc1ccc(CN(C)C(=O)CNC(=O)c2ccc3ccccc3c2)cc1OC | -15.6
CCOC(=O)CCNC(=O)N1CCCC(C(=O)c2cccc(OC(C)C)c2)C1 (stereo not drawn) | -10.3
COc1ccc(C2CCCN2CC(O)COc2ccccc2C(C)C)cc1 (stereo not drawn) | -24.3

Source: PMC4336329 (PLoS ONE, 2015)
